The list shows a part of the results. The list includes weakly bound sequences.
target: MaxL homodimer (UniProt P61244); test: universal protein-binding microarray (PBM); details: PBS-based mixture, 10 nM His-tagged protein dimer, 2% milk, 200 ng/uL BSA, 50 ng/uL salmon testes DNA, 0.02% TX-100; detection with Alexa 488 anti-His …; high values mean tight binding; most listed sequences are background and not binding sites; double strand, one strand shown
Sequence of UniProt P61244 (P61244 whole entry): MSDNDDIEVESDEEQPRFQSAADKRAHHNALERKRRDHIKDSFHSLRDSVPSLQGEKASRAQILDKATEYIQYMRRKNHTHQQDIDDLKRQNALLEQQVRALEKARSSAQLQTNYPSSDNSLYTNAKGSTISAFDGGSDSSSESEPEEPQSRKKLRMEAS

Q: TCTGGTCA was tested. Which binding signal (normalized occupancy) did it give?
A: 0.0768

Q: AATCCGTG was tested. Which binding signal (normalized occupancy) did it give?
A: 0.0806

Q: Which binding signal (normalized occupancy) does the source give for ACAAATCT here?
A: 0.0773

Q: How did the binding signal (normalized occupancy) turn out when ACTACCAA was run?
A: 0.0694

Q: How did the binding signal (normalized occupancy) turn out when GCCTGTTA was run?
A: 0.0819

Q: With GGACAGTA as the sequence, how does the binding signal (normalized occupancy) read?
A: 0.0732

Q: CCTCAAGA was tested. Which binding signal (normalized occupancy) did it give?
A: 0.0746

Q: With AATAGATG as the sequence, how does the binding signal (normalized occupancy) read?
A: 0.0814

Q: AAACAGGC was tested. Which binding signal (normalized occupancy) did it give?
A: 0.0748

Q: How did the binding signal (normalized occupancy) turn out when GCCTTCTA was run?
A: 0.0739

Q: AGTTTTGG was tested. Which binding signal (normalized occupancy) did it give?
A: 0.0712

Q: For CACTGGGA, which binding signal (normalized occupancy) is on record?
A: 0.0741

Q: For AAAAATTA, which binding signal (normalized occupancy) is on record?
A: 0.0712

Q: How did the binding signal (normalized occupancy) turn out when GAAAACTA was run?
A: 0.0775

Q: CATCAGGG was tested. Which binding signal (normalized occupancy) did it give?
A: 0.0741

Q: GGGCCGAC was tested. Which binding signal (normalized occupancy) did it give?
A: 0.0683

Q: How did the binding signal (normalized occupancy) turn out when TAATCTGA was run?
A: 0.0743

Q: Which binding signal (normalized occupancy) does the source give for AGCGATAT here?
A: 0.0746

Q: With TAATGCGA as the sequence, how does the binding signal (normalized occupancy) read?
A: 0.0758

Q: With GTGGCCCA as the sequence, how does the binding signal (normalized occupancy) read?
A: 0.0744

Q: How did the binding signal (normalized occupancy) turn out when CATGGACG was run?
A: 0.0831

Q: Which binding signal (normalized occupancy) does the source give for CCTGTCCG here?
A: 0.0752

Q: For CTATGAAA, which binding signal (normalized occupancy) is on record?
A: 0.0772

Q: Which binding signal (normalized occupancy) does the source give for AATATTCG here?
A: 0.0729

Q: For CGAACTTA, which binding signal (normalized occupancy) is on record?
A: 0.0707

Q: CGTTGAGA was tested. Which binding signal (normalized occupancy) did it give?
A: 0.0727

Q: With AAAACGAG as the sequence, how does the binding signal (normalized occupancy) read?
A: 0.0747

Q: For TTAGACAA, which binding signal (normalized occupancy) is on record?
A: 0.079

Q: How did the binding signal (normalized occupancy) turn out when TAGCTAAA was run?
A: 0.0707

Q: For CCAAAAGG, which binding signal (normalized occupancy) is on record?
A: 0.066

Q: How did the binding signal (normalized occupancy) turn out when ACGGAAAT was run?
A: 0.0724

Q: Which binding signal (normalized occupancy) does the source give for CGTATCTA here?
A: 0.0778

Q: AAATTCAA was tested. Which binding signal (normalized occupancy) did it give?
A: 0.0737

Q: GAGAACGA was tested. Which binding signal (normalized occupancy) did it give?
A: 0.0782

Q: How did the binding signal (normalized occupancy) turn out when GAGTTAAC was run?
A: 0.0767

Q: How did the binding signal (normalized occupancy) turn out when AAGCTCAA was run?
A: 0.0689

Q: Which binding signal (normalized occupancy) does the source give for GAGCGCGA here?
A: 0.0707

Q: For AGGCAACA, which binding signal (normalized occupancy) is on record?
A: 0.0766

Q: With GTGTGCTA as the sequence, how does the binding signal (normalized occupancy) read?
A: 0.0884

Q: How did the binding signal (normalized occupancy) turn out when GCCAACGC was run?
A: 0.0756

Q: With CTTTATCA as the sequence, how does the binding signal (normalized occupancy) read?
A: 0.0732

Q: For GATGCCCA, which binding signal (normalized occupancy) is on record?
A: 0.0798

Q: How did the binding signal (normalized occupancy) turn out when TCTGGGAA was run?
A: 0.0706

Q: With CTAACGCC as the sequence, how does the binding signal (normalized occupancy) read?
A: 0.0758

Q: For CAGCGGGA, which binding signal (normalized occupancy) is on record?
A: 0.0676

Q: How did the binding signal (normalized occupancy) turn out when ATTAACAG was run?
A: 0.077

Q: For CGCGAGCG, which binding signal (normalized occupancy) is on record?
A: 0.073

Q: GCCAGCCA was tested. Which binding signal (normalized occupancy) did it give?
A: 0.0754

Q: With CACGGACG as the sequence, how does the binding signal (normalized occupancy) read?
A: 0.0738

Q: For CGTCTGTC, which binding signal (normalized occupancy) is on record?
A: 0.0743

Q: For GATTTAAC, which binding signal (normalized occupancy) is on record?
A: 0.0749

Q: CCCGCCCG was tested. Which binding signal (normalized occupancy) did it give?
A: 0.0736

Q: With AGCGGCCT as the sequence, how does the binding signal (normalized occupancy) read?
A: 0.0637

Q: How did the binding signal (normalized occupancy) turn out when ACATGCCC was run?
A: 0.099

Q: ACCAGCCG was tested. Which binding signal (normalized occupancy) did it give?
A: 0.0682

Q: CTGCATTC was tested. Which binding signal (normalized occupancy) did it give?
A: 0.0735

Q: GTTTACGA was tested. Which binding signal (normalized occupancy) did it give?
A: 0.0775

Q: How did the binding signal (normalized occupancy) turn out when AAGACAAA was run?
A: 0.0719

Q: How did the binding signal (normalized occupancy) turn out when AGAAGACA was run?
A: 0.0717

Q: With ATCTTGCA as the sequence, how does the binding signal (normalized occupancy) read?
A: 0.0764

Q: For GAGATGTA, which binding signal (normalized occupancy) is on record?
A: 0.082

Q: For ACATAATC, which binding signal (normalized occupancy) is on record?
A: 0.0854

Q: Which binding signal (normalized occupancy) does the source give for CTAGACAA here?
A: 0.0707

Q: AACGGCCT was tested. Which binding signal (normalized occupancy) did it give?
A: 0.0683

Q: How did the binding signal (normalized occupancy) turn out when AGGATCAG was run?
A: 0.0761

Q: AAATTGAA was tested. Which binding signal (normalized occupancy) did it give?
A: 0.0797

Q: How did the binding signal (normalized occupancy) turn out when ATTCGATG was run?
A: 0.0756

Q: Which binding signal (normalized occupancy) does the source give for CAAGCAAG here?
A: 0.0683

Q: Which binding signal (normalized occupancy) does the source give for AGAAGTTC here?
A: 0.0713

Q: ATACTAGG was tested. Which binding signal (normalized occupancy) did it give?
A: 0.0737

Q: With ACGTGCGG as the sequence, how does the binding signal (normalized occupancy) read?
A: 0.0927

Q: For CTGTTCAA, which binding signal (normalized occupancy) is on record?
A: 0.0728

Q: Which binding signal (normalized occupancy) does the source give for GGCTACGA here?
A: 0.0741

Q: For AATCACCG, which binding signal (normalized occupancy) is on record?
A: 0.0745

Q: With TCAGACAA as the sequence, how does the binding signal (normalized occupancy) read?
A: 0.0792

Q: With AGCATTAA as the sequence, how does the binding signal (normalized occupancy) read?
A: 0.0798

Q: For TGCCTAAA, which binding signal (normalized occupancy) is on record?
A: 0.0754

Q: Which binding signal (normalized occupancy) does the source give for CCCTTACC here?
A: 0.0812

Q: Which binding signal (normalized occupancy) does the source give for GTGCCAGA here?
A: 0.0767

Q: For AACATCAG, which binding signal (normalized occupancy) is on record?
A: 0.0766

Q: With CCACTGCG as the sequence, how does the binding signal (normalized occupancy) read?
A: 0.0721

Q: With CGCCTTAC as the sequence, how does the binding signal (normalized occupancy) read?
A: 0.0702

Q: TTGGACAA was tested. Which binding signal (normalized occupancy) did it give?
A: 0.0731

Q: With TAGCCAAA as the sequence, how does the binding signal (normalized occupancy) read?
A: 0.0759

Q: How did the binding signal (normalized occupancy) turn out when GTGCTACA was run?
A: 0.0815

Q: How did the binding signal (normalized occupancy) turn out when AGCCTACG was run?
A: 0.0686

Q: For ATTTAAAT, which binding signal (normalized occupancy) is on record?
A: 0.0763

Q: AAAGGTCG was tested. Which binding signal (normalized occupancy) did it give?
A: 0.0715

Q: Which binding signal (normalized occupancy) does the source give for CTGTTGGA here?
A: 0.0705

Q: With GCCAGCGC as the sequence, how does the binding signal (normalized occupancy) read?
A: 0.069

Q: For AAAGGTGT, which binding signal (normalized occupancy) is on record?
A: 0.0816

Q: For AACACTCA, which binding signal (normalized occupancy) is on record?
A: 0.0784

Q: How did the binding signal (normalized occupancy) turn out when CTCCTCAA was run?
A: 0.0745

Q: TGCACCCA was tested. Which binding signal (normalized occupancy) did it give?
A: 0.0807

Q: With AGGCGATA as the sequence, how does the binding signal (normalized occupancy) read?
A: 0.0741

Q: With AGCACACC as the sequence, how does the binding signal (normalized occupancy) read?
A: 0.0876

Q: For AGTTCATA, which binding signal (normalized occupancy) is on record?
A: 0.0826

Q: How did the binding signal (normalized occupancy) turn out when AAGACTAC was run?
A: 0.0705

Q: How did the binding signal (normalized occupancy) turn out when GTTCTTCA was run?
A: 0.0702

Q: With ACCTTGGG as the sequence, how does the binding signal (normalized occupancy) read?
A: 0.074

Q: How did the binding signal (normalized occupancy) turn out when ATCATAAT was run?
A: 0.0881

Q: For AGACGTAG, which binding signal (normalized occupancy) is on record?
A: 0.0724

Q: Which binding signal (normalized occupancy) does the source give for TGCGCGCA here?
A: 0.0844

Q: Which binding signal (normalized occupancy) does the source give for GCGTGGGA here?
A: 0.125

Q: With ATTCCGCA as the sequence, how does the binding signal (normalized occupancy) read?
A: 0.0727

Q: For CGACATCC, which binding signal (normalized occupancy) is on record?
A: 0.0767

Q: GGGCGGTA was tested. Which binding signal (normalized occupancy) did it give?
A: 0.0721

Q: For ATCATCGA, which binding signal (normalized occupancy) is on record?
A: 0.0825

Q: Which binding signal (normalized occupancy) does the source give for CTAGCCCC here?
A: 0.0838

Q: Which binding signal (normalized occupancy) does the source give for AAGTGTCC here?
A: 0.0701
